Some of the results follow.
Columns and labels:
Assay in all cases: glycan array binding signal (z-score within array); higher = stronger binding
Details in all cases: glycan notation: IUPAC condensed, linker removed
[1] = molecular target: GlcNAc6S(b1-3)Gal(b1-4)GlcNAc
Summary of the method: (§1)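 Glycan array data came from 3228 arrays in the Consortium for Functional Glycomics database, and only arrays with an available protein sequence were kept. Glycan names were put into IUPAC-condensed notation, and columns mapping to the same glycan were averaged. The binding signal is a within-array Z-score, averaged across arrays of one protein sequence run at different concentrations or buffers and across linkers. A negative Z-score can be read as non-binding.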

Kdn(a2-3)Gal(b1-3)GalNAc = molecular target: Kdn(a2-3)Gal(b1-3)GalNAc
Summary of the method: as §1

Kdn(a2-3)Gal(b1-3)GlcNAc = molecular target: Kdn(a2-3)Gal(b1-3)GlcNAc
Summary of the method: as §1

Kdn(a2-3)Gal(b1-4)Glc = molecular target: Kdn(a2-3)Gal(b1-4)Glc
Summary of the method: as §1

Kdn(a2-3)Gal(b1-4)GlcNAc = molecular target: Kdn(a2-3)Gal(b1-4)GlcNAc
Summary of the method: as §1

[2] = molecular target: Kdn(a2-3)Gal(b1-4)[Fuc(a1-3)]GlcNAc
Summary of the method: as §1

Kdn(a2-6)Gal(b1-4)GlcNAc = molecular target: Kdn(a2-6)Gal(b1-4)GlcNAc
Summary of the method: as §1

[3] = molecular target: Man(a1-2)Man(a1-2)Man(a1-3)Man
Summary of the method: as §1

[4] = molecular target: Man(a1-2)Man(a1-2)Man(a1-6)[Man(a1-3)]Man
Summary of the method: as §1

Man(a1-2)Man(a1-3)Man = molecular target: Man(a1-2)Man(a1-3)Man
Summary of the method: as §1

[5] = molecular target: Man(a1-2)Man(a1-3)[Man(a1-2)Man(a1-6)]Man
Summary of the method: as §1

[6] = molecular target: Man(a1-2)Man(a1-3)[Man(a1-2)Man(a1-6)]Man(a1-6)[Man(a1-2)Man(a1-2)Man(a1-3)]Man
Summary of the method: as §1

[7] = molecular target: Man(a1-2)Man(a1-3)[Man(a1-2)Man(a1-6)]Man(a1-6)[Man(a1-2)Man(a1-2)Man(a1-3)]Man(b1-4)GlcNAc(b1-4)GlcNAc
Summary of the method: as §1

[8] = molecular target: Man(a1-2)Man(a1-3)[Man(a1-6)]Man(a1-6)[Man(a1-2)Man(a1-3)]Man(b1-4)GlcNAc(b1-4)GlcNAc
Summary of the method: as §1

[9] = molecular target: Man(a1-2)Man(a1-6)[Man(a1-3)]Man(a1-6)[Man(a1-2)Man(a1-2)Man(a1-3)]Man
Summary of the method: as §1

[10] = molecular target: Man(a1-2)Man(a1-6)[Man(a1-3)]Man(a1-6)[Man(a1-2)Man(a1-2)Man(a1-3)]Man(b1-4)GlcNAc(b1-4)GlcNAc
Summary of the method: as §1

Man(a1-3)[Man(a1-6)]Man = molecular target: Man(a1-3)[Man(a1-6)]Man
Summary of the method: as §1

[11] = molecular target: Man(a1-3)[Man(a1-6)]Man(a1-6)[Man(a1-2)Man(a1-3)]Man(b1-4)GlcNAc(b1-4)GlcNAc
Summary of the method: as §1

[12] = molecular target: Man(a1-3)[Man(a1-6)]Man(a1-6)[Man(a1-3)]Man
Summary of the method: as §1

[13] = molecular target: Man(a1-3)[Man(a1-6)]Man(a1-6)[Man(a1-3)]Man(b1-4)GlcNAc(b1-4)GlcNAc
Summary of the method: as §1

[14] = molecular target: Man(a1-3)[Man(a1-6)]Man(b1-4)GlcNAc(b1-4)GlcNAc
Summary of the method: as §1

Man(a1-6)Man = molecular target: Man(a1-6)Man
Summary of the method: as §1

Man(b1-4)GlcNAc = molecular target: Man(b1-4)GlcNAc
Summary of the method: as §1

Neu5Ac(a2-3)Gal = molecular target: Neu5Ac(a2-3)Gal
Summary of the method: as §1

[15] = molecular target: Neu5Ac(a2-3)Gal(b1-3)GalNAc
Summary of the method: as §1

[16] = molecular target: Neu5Ac(a2-3)Gal(b1-3)GalNAc(b1-3)Gal(a1-4)Gal(b1-4)Glc
Summary of the method: as §1

[17] = molecular target: Neu5Ac(a2-3)Gal(b1-3)GalNAc(b1-4)[Neu5Ac(a2-3)]Gal(b1-4)Glc
Summary of the method: as §1

[18] = molecular target: Neu5Ac(a2-3)Gal(b1-3)GalNAc6S
Summary of the method: as §1

[19] = molecular target: Neu5Ac(a2-3)Gal(b1-3)GlcNAc
Summary of the method: as §1

[20] = molecular target: Neu5Ac(a2-3)Gal(b1-3)GlcNAc(b1-2)Man(a1-3)[Neu5Ac(a2-3)Gal(b1-3)GlcNAc(b1-2)Man(a1-6)]Man(b1-4)GlcNAc(b1-4)GlcNAc
Summary of the method: as §1

[21] = molecular target: Neu5Ac(a2-3)Gal(b1-3)GlcNAc(b1-3)Gal(b1-3)GlcNAc
Summary of the method: as §1

[22] = molecular target: Neu5Ac(a2-3)Gal(b1-3)GlcNAc(b1-3)Gal(b1-4)GlcNAc
Summary of the method: as §1

[23] = molecular target: Neu5Ac(a2-3)Gal(b1-3)GlcNAc(b1-3)GalNAc
Summary of the method: as §1

[24] = molecular target: Neu5Ac(a2-3)Gal(b1-3)GlcNAc6S
Summary of the method: as §1

[25] = molecular target: Neu5Ac(a2-3)Gal(b1-3)[Fuc(a1-4)]GlcNAc
Summary of the method: as §1

[26] = molecular target: Neu5Ac(a2-3)Gal(b1-3)[Fuc(a1-4)]GlcNAc(b1-3)Gal(b1-3)[Fuc(a1-4)]GlcNAc
Summary of the method: as §1

[27] = molecular target: Neu5Ac(a2-3)Gal(b1-3)[Fuc(a1-4)]GlcNAc(b1-3)Gal(b1-4)[Fuc(a1-3)]GlcNAc
Summary of the method: as §1

[28] = molecular target: Neu5Ac(a2-3)Gal(b1-3)[Neu5Ac(a2-3)Gal(b1-4)]GlcNAc
Summary of the method: as §1

[29] = molecular target: Neu5Ac(a2-3)Gal(b1-3)[Neu5Ac(a2-6)]GalNAc
Summary of the method: as §1

Neu5Ac(a2-3)Gal(b1-4)Glc = molecular target: Neu5Ac(a2-3)Gal(b1-4)Glc
Summary of the method: as §1

[30] = molecular target: Neu5Ac(a2-3)Gal(b1-4)GlcNAc
Summary of the method: as §1

[31] = molecular target: Neu5Ac(a2-3)Gal(b1-4)GlcNAc(b1-2)Man(a1-3)[GlcNAc(b1-2)Man(b1-4)GlcNAc(b1-2)Man(a1-6)]Man(b1-4)GlcNAc(b1-4)GlcNAc
Summary of the method: as §1

[32] = molecular target: Neu5Ac(a2-3)Gal(b1-4)GlcNAc(b1-2)Man(a1-3)[Neu5Ac(a2-6)Gal(b1-4)GlcNAc(b1-2)Man(a1-6)]Man(b1-4)GlcNAc(b1-4)GlcNAc
Summary of the method: as §1

[33] = molecular target: Neu5Ac(a2-3)Gal(b1-4)GlcNAc(b1-3)Gal(b1-3)GlcNAc
Summary of the method: as §1

[34] = molecular target: Neu5Ac(a2-3)Gal(b1-4)GlcNAc(b1-3)Gal(b1-4)GlcNAc
Summary of the method: as §1

B1: exo-alpha-sialidase (Propionibacterium acnes), Q6A7G1 (protein)
chain: GSHMSGRAPAPVAATTQPKLVTGDITSTDQSGTNLFFGKKIVRNARGAIMKVDRTWPAAVPAPLPDVRADSSTRMLLGPVVDLAVNEHPEGVFYRIPALATASNGDLLASYDLRPGSAGDAPNPNSIVQRRSRDNGRTWGPQTVIHAGTPGRRKVGYSDPSYLVDPATGRILNFHVKSYDRGFATSEVGTDPDDRHVLHAEVSTSTDNGHTWTHRDITREITSDPTTRTRFVASGQGIALLHGPHAGRLIAQMTVRNSVGQQAQSIYSDDHGITWHAGNPVGRMMDENKVVELSDGTLMLNSRDAARSGRRKVAYSQDGGLTWGPVKLVDDLIDPTNNAQIIRAYPNARAGSAKARILLFTNARNATERVNGTLSVSCDDGRTWVSHQTYMPGEVGYTTAAVQSDGALGVLWERDGIRYSTIPMGWLNSVCPLAPSGRPTSGKPTSGTSLPPTAT
glycan array binding signal (z-score) [1]: -0.329 | glycan array binding signal (z-score) (Kdn(a2-3)Gal(b1-3)GalNAc): -0.265 | glycan array binding signal (z-score) (Kdn(a2-3)Gal(b1-3)GlcNAc): -0.321 | glycan array binding signal (z-score) (Kdn(a2-3)Gal(b1-4)Glc): -0.283 | glycan array binding signal (z-score) (Kdn(a2-3)Gal(b1-4)GlcNAc): -0.343 | glycan array binding signal (z-score) [2]: -0.23 | glycan array binding signal (z-score) (Kdn(a2-6)Gal(b1-4)GlcNAc): -0.332 | glycan array binding signal (z-score) [3]: -0.358 | glycan array binding signal (z-score) [4]: -0.365 | glycan array binding signal (z-score) (Man(a1-2)Man(a1-3)Man): -0.339 | glycan array binding signal (z-score) [5]: -0.348 | glycan array binding signal (z-score) [6]: -0.359 | glycan array binding signal (z-score) [7]: -0.344 | glycan array binding signal (z-score) [8]: -0.356 | glycan array binding signal (z-score) [9]: -0.355 | glycan array binding signal (z-score) [10]: -0.355 | glycan array binding signal (z-score) (Man(a1-3)[Man(a1-6)]Man): -0.336 | glycan array binding signal (z-score) [11]: -0.305 | glycan array binding signal (z-score) [12]: -0.294 | glycan array binding signal (z-score) [13]: -0.356 | glycan array binding signal (z-score) [14]: -0.346 | glycan array binding signal (z-score) (Man(a1-6)Man): -0.309 | glycan array binding signal (z-score) (Man(b1-4)GlcNAc): -0.29 | glycan array binding signal (z-score) (Neu5Ac(a2-3)Gal): 0.42 | glycan array binding signal (z-score) [15]: 3.6 | glycan array binding signal (z-score) [16]: 0.286 | glycan array binding signal (z-score) [17]: 6.27 | glycan array binding signal (z-score) [18]: 3.54 | glycan array binding signal (z-score) [19]: 3.17 | glycan array binding signal (z-score) [20]: -0.092 | glycan array binding signal (z-score) [21]: 2.6 | glycan array binding signal (z-score) [22]: 1.55 | glycan array binding signal (z-score) [23]: 3.71 | glycan array binding signal (z-score) [24]: 2.18 | glycan array binding signal (z-score) [25]: -0.034 | glycan array binding signal (z-score) [26]: 0.022 | glycan array binding signal (z-score) [27]: -0.031 | glycan array binding signal (z-score) [28]: 3.09 | glycan array binding signal (z-score) [29]: 3.45 | glycan array binding signal (z-score) (Neu5Ac(a2-3)Gal(b1-4)Glc): 0.583 | glycan array binding signal (z-score) [30]: 0.727 | glycan array binding signal (z-score) [31]: 0.528 | glycan array binding signal (z-score) [32]: 0.736 | glycan array binding signal (z-score) [33]: 0.379 | glycan array binding signal (z-score) [34]: 0.444

Reference: the supplement of paper PMC8728848
